Results reported in the supplement of paper PMC11417369.
± gives the standard deviation of the averaged measurements. The list shows a part of the results.

system: PfAP2-LT AP2 domain (GST-tagged); assay: gcPBM binding intensity (ln(normalized median fluorescence intensity)); higher = stronger DNA binding
Procedure, shortened: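 Plasmodium falciparum DNA-binding domains carrying a GST tag were expressed in E. coli and applied for 1 h, at about 25 μg on average, to an Agilent 4 × 180k array. The array held primer-extended double-stranded 36-bp intergenic genomic probes together with negative controls, and binding took place in 1× PBS with 1% milk, 0.2 mg/ml BSA, 0.5% salmon testes DNA and 0.03% Triton X-100. An Alexa488 anti-GST antibody detected bound protein, and the array was scanned at 488 nm. Binding intensity is taken as the highest Masliner-normalised natural-log median intensity across replicate spots of either probe orientation.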

| Sequence | gcPBM binding intensity (ln) |
| --- | --- |
| ATAACTTGTATATATACACACACACCCTTTCTTTTT [CACACA_site8600] | 9.79 ± 0.47 |
| TATATTATATTATACATACACACCCATATAATATGT [CACACA_site869] | 9.15 ± 0.41 |
| ATTTAAAAAAAAATGGCACACATTTTAATTTTATGT [CACACA_site1740] | 8.76 ± 0.46 |
| TTTTTGTTTCGTTACGCATGCCAAAAGTAAAAATAT [TGCATGCA_site536] | 8.61 ± 0.4 |
| TTGTGTCATATATTTTGTAATCAAAATAATTTTATT [TGCATGCA_negctrl_site307] | 8.45 ± 0.5 |
| TTTTTAATGATCAGACGTACAGTTATGAAGAAATTT [XGTACX_site6394] | 8.53 ± 0.38 |
| GTAATGTCGTCGTTTTGTACATATTTTTATAAAAAG [XGTACX_site2688] | 8.77 ± 0.36 |
| TATTATAAATTAATTTTAAACTTTATTATTATGATA [GTGCAC_negctrl_site389] | 8.15 ± 0.49 |
| TATTAGTCGAATGATGTACACACATACAAAACATTT [CACACA_site9331] | 9.12 ± 0.38 |
| AAAGGAGACAGAATAAGAATAAATATTATACATATA [XGTACX_negctrl_site412] | 8.71 ± 0.62 |
| AAAAAAAAAAAGAACTCACACATAATAATGTATATG [CACACA_site4974] | 8.64 ± 0.47 |
| TTAAAATTATATCTGTGTACATAAATTGTGTAACTA [XGTACX_site1966] | 8.62 ± 0.38 |
| TGGGAAAACCCCAGAAGTACGCTTAATATAAAAAAT [XGTACX_site697] | 8.72 ± 0.51 |
| ATAATGTTCCTATGATGTACTTATAATTATCATTTT [XGTACX_site4017] | 8.86 ± 0.45 |
| ATTAAAATAATATAAACACACATATACTTTTTTCTA [CACACA_site565] | 8.63 ± 0.45 |
| TATTGTTCGTTTAAGGTGCTATTGTTTGCAAAATAT [GTGCAC_site9412] | 8.83 ± 0.33 |
| AAGAGGTTATTACATTCACATAACATCAATATACGT [GTGCAC_negctrl_site264] | 8.88 ± 0.45 |
| TAGCGTACATTTCATTGTAATCATAAAAAATAAAGA [CACACA_negctrl_site447] | 8.54 ± 0.51 |
| TTAAAACATATTTTGAATTAATATATTTTAATATTA [XGTACX_negctrl_site148] | 8.05 ± 0.5 |
| ATTCATATGTGACACACACACACACGCATAAAAAAA [CACACA_site7515] | 10 ± 0.29 |
| ACAAAAATATATATATGTACATATATCATCATAATA [XGTACX_site5850] | 8.83 ± 0.45 |
| TTTATTAGAACCGTACGTACATAGTTATTTTTTCAA [XGTACX_site8848] | 8.67 ± 0.38 |

| Sequence | gcPBM binding intensity (ln) |
| --- | --- |
| GTTTGTATAGGTTCATGTACAAAAAAAAAAAAAAAA [XGTACX_site537] | 8.49 ± 0.49 |
| TTTAAAACCCTAAAAAAAAAAAAAAAAAAAAAAAAA [CACACA_negctrl_site1212] | 8.25 ± 0.28 |
| ATGCATAAAAGAAATACACACATAAATATGTAAATA [CACACA_site7087] | 9.38 ± 0.38 |
| AGGTATATATTACAAGTGCACTGTAAAATTAAAATT | 8.93 ± 0.43 |
| TAATAAACAAATTCCAAAATAAATTAAAAGGAAAAT [CACACA_negctrl_site1404] | 8.68 ± 0.49 |
| TTTTATCTCATTCATCAAAATCACCGGAATCATATA [CACACA_negctrl_site357] | 8.42 ± 0.37 |
| ATTTTATCATAATAAAGTACAAAGATGCAAATAATA [XGTACX_site2270] | 8.8 ± 0.43 |
| ATTTATTTATATTTAGTGCAATACTATTTTTAAATA [GTGCAC_site9886] | 8.54 ± 0.43 |
| ATAAAATAAATGAAAAATGTAAAATGAGAAAAAAAT [CACACA_negctrl_site1026] | 8.97 ± 0.47 |
| TATATATATATATGGGTGCATTTTTTTGTCCATGTA [GTGCAC_site9868] | 9.63 ± 0.23 |
| TATGCTATAATACTCTGTACTTACTAATTTAATAAT [XGTACX_site5926] | 8.7 ± 0.41 |
| TACATATTTTTTATATGTACATATTTTTTATGTGTA [XGTACX_site442] | 8.9 ± 0.45 |
| ATATACACATAAAGTAGTACACCTGAAATTTTTTTT [XGTACX_site2951] | 8.86 ± 0.37 |
| AATTCATTTAAAAGTTGTACAAGCTTAATAAAAAAA [XGTACX_site6073] | 8.61 ± 0.45 |
| GAGGATATATTATATGTACACACATATATAACGGAT [CACACA_site8361] | 9.26 ± 0.32 |
| GTATTTTTTTTAATATGTACATATAAAATATTTTAT [XGTACX_site8329] | 8.84 ± 0.38 |
| AATACAATTTATAACACACACACAATAATACATATA [CACACA_site1252] | 9.77 ± 0.28 |
| ATATAAGTTTATATATGTACATATATATATTATATA [XGTACX_site2068] | 8.66 ± 0.39 |
| AATATATGAATTAGAAGTACAAATAAATATTTATTT [XGTACX_site2062] | 8.66 ± 0.38 |
| TTAATCATAAAAGTCACACATAATAAGAAAAAGCTT [CACACA_site4616] | 8.78 ± 0.37 |
| AATTAAAAATATAAATGTACATATATGTAAAACTTT [XGTACX_site123] | 9.01 ± 0.38 |
| CCCATGCATTTTTGCACACACATATATATATAAATA [CACACA_site1430] | 9.49 ± 0.33 |
